The other results are listed elsewhere or left out.
tested on: T1, C. trachomatis L2/434/Bu expressing GFP (CTL2-GFP); set-up: species or system HeLa; C. trachomatis total inclusion area by high-content imaging, normalised to DMSO; conditions: total inclusion area; 28.5 h, 10 µM; inhibitor
T1 construct: L2/434/Bu GFP intracellular growth in HeLa cells
Outline: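 Post-fluorescence-read fixation, DNA staining with Hoechst and high-content imaging; GFP inclusion area and number per well, and nuclei counts, used as proxies for bacterial growth and host viability.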

Structure (SMILES)	% of control remaining
CCOc1ccc(CNc2ccc(N3CCOCC3)c(C(=O)O)c2)cc1OC [CBK269192]	101.929
COc1ccc2[nH]c(=O)c(CNc3ccc4c(c3)-c3ccccc3S(=O)(=O)N4)cc2c1 [CBK286409]	104.438
O=C(c1cccc(-c2nnc(-c3ccccc3)o2)c1)N1CCN(C(=O)c2ccco2)CC1 [CBK269809]	108.644
CCCc1cc(C(=O)NC2CCN(Cc3cccc(F)c3)CC2)[nH]n1 [CBK282465]	94.5714
CS(=O)(=O)N(CC(=O)Nc1ccccc1C(=O)N1CCOCC1)c1ccc(F)c(Cl)c1 [CBK267931]	103.198
c1ccc2nc(N3CCCC3)c(OC3CCOC3)nc2c1 (stereo not drawn) [CBK115769]	105.388
O=C(c1ccccc1)c1cccc(OCCOc2nccnc2N2CCNCC2)c1 [CBK014250G]	75.1914
COc1cccc(/C=C(/C#N)c2ccc(Cl)cc2)c1OCc1cccc(C(=O)O)c1 [CBK266721]	118.545
COc1ccc(C(=O)N2CCC3(CCCN(CCc4c[nH]c5ccccc45)C3)C2)cc1OC (stereo not drawn) [CBK137143]	74.6321
O=C(CCCc1ccccc1)Nc1ccccc1C(=O)O [CBK265516]	111.336
O=C(C1CN(Cc2nc3ccsc3c(=O)[nH]2)c2ccccc2O1)N1CCOCC1 (stereo not drawn) [CBK295189]	100.952
COc1ccccc1-c1ccc(CC2(C(=O)NCCc3ccc(F)cc3)CCOCC2)cc1 [CBK286520]	67.8955
CC(c1ccccc1)c1nc2cnccn2c1NC(C)(C)C (stereo not drawn) [CBK283533]	93.0563
O=C(CCNCCc1c[nH]c(=O)[nH]c1=O)Nc1cccc(Cl)c1 [CBK306889]	62.6902
O=C(c1ccccn1)N1CCN(CCc2ccccc2)CC1 [CBK200201]	106.317
COc1ccccc1N(CC(=O)NC(C(C)C)C(C)C)S(=O)(=O)c1ccccc1 [CBK101384]	86.3127
CC(=O)Nc1ccc(-c2cncc(NC(C)CCCC(C)(C)O)n2)cc1 (stereo not drawn) [CBK065894]	105.954
O=C(CCN1C(=O)/C(=C/c2ccc(F)cc2)SC1=S)NNC(=O)c1ccncc1 [CBK262821]	101.336
Cc1cc(Br)ccc1NC(=O)c1cnc2sccn2c1=O [CBK246520]	96.8615
COc1ccc(C2CC(Cn3cc(C(C)=O)c(=O)[nH]c3=O)ON2C)cc1 (stereo not drawn) [CBK019386]	61.2031
CCOCC(=O)N(C)C1CCN(c2ncnc3ccccc23)CC1 [CBK306247]	44.4946
CC[C@H]1CN(C(=O)c2ccnc(Cl)c2)CC[C@H]1CC(=O)O [CBK289139]	128.651
COc1ccc(CNC(=O)C2CCCN(c3nc4c(-c5ccccc5)csc4c(=O)[nH]3)C2)cc1 (stereo not drawn) [CBK215464]	102.132
Cc1nn(CC(=O)NC(C)(C)C)c(=O)c2cc3ccsc3n12 [CBK284082]	81.9845
O=C(Cc1ccccc1)Nc1ccc2[nH]ncc2c1 [CBK288211]	126.77
Cc1c(C(=O)O)sc2nc(C=Cc3cc([N+](=O)[O-])ccc3Cl)[nH]c(=O)c12 [CBK295613]	114.371

Structure (SMILES)	% of control remaining
C[C@@H](c1ccccc1)n1c(=O)[nH]c2ncc(-c3ccco3)nc21 [CBK064168]	127.604
O=C(O)c1cc(S(=O)(=O)Nc2ccc3cc(Br)cnc3n2)c(F)cc1Cl [CBK073898]	92.7911
Nc1cccc2c(OCCO)cccc12 [CBK001976C]	3.862
Cc1ccc(C(=O)N[C@@H]2C[C@H](C)CC[C@H]2C(C)C)cc1C [CBK085823]	85.6023
CC1CCc2nc(NC(=O)Cn3cccc(C(=O)Nc4ccc(F)cc4)c3=O)sc2C1 (stereo not drawn) [CBK286063]	118.519
COc1ccc2[nH]c(CN3CCCC(c4nc(C)n[nH]4)C3)c(C)c2c1 (stereo not drawn) [CBK306904]	66.6783
Cc1nc(CN2CCC(C(=O)c3ccc(F)cc3)CC2)cs1 [CBK149147]	133.779
CCN(CC)C(=O)CN1CCN(c2nccnc2Oc2ccc(F)cc2)CC1 [CBK083020T]	102.993
C=CCN1C(=O)CC2(C1=O)C(=O)N(CCCn1c(=O)n(C)c3ccccc31)c1ccc(Cl)cc12 (stereo not drawn) [CBK075411]	109.934
Cc1ccc(C(=O)Nc2ccccc2C(=O)O)cc1S(=O)(=O)NCc1ccccc1 [CBK263212]	98.945
COc1ccc(OC[C@@H](N)C(C)C)cc1 [CBK284299]	80.3811
CCN(CC)C(=O)CN1CCN(c2nccnc2OCCN2C(=O)CCC2=O)CC1 [CBK084297]	78.7901
CCc1ccc(CNC(=O)c2ccc3c(c2)NC(=O)C(N2CCOCC2)S3)cc1 (stereo not drawn) [CBK071737]	105.142
c1ccc(-c2nccnc2NCc2ccco2)cc1 [CBK088642]	127.161
O=C(Nc1cc2ccccc2c(N2CCNCC2)n1)c1ccccc1 [CBK028423T]	92.9483
COc1cccc(CC(=O)NCC(c2cccs2)N2CCOCC2)c1 (stereo not drawn) [CBK305621]	68.3072
Cc1noc(C)c1S(=O)(=O)NC1CCN(Cc2ccccc2)CC1 [CBK062028]	84.969
C=CCc1ccc(OCC(=O)NN)c(OC)c1 [CBK261831]	101.489
O=[N+]([O-])c1cc(S(=O)(=O)Nc2ccc3[nH]ncc3c2)ccc1Cl [CBK062537]	84.6203
Cc1c(C(=O)NCCCCn2ccnc2)oc2c(C)cccc12 [CBK283315]	89.7451
COc1cccc(Cn2c(=O)c3sccc3n(CC(=O)NCc3ccc(C)cc3)c2=O)c1 [CBK300533]	93.4947
Cc1ccc(-c2nc(C)c(C(=O)NCc3ccnc(-n4ccnc4)c3)s2)o1 [CBK298322]	70.762
Cc1cc(=O)[nH]c(SCCC(=O)O)n1 [CBK268242]	100.91
O=C(NCCCc1ccccn1)c1cc(-c2cccs2)no1 [CBK282652]	54.9192
O=S(=O)(c1ccc(OC(F)(F)F)cc1)N1CCc2ccccc21 [CBK044279]	53.9935
COc1cc(C2c3c(-c4cc(C)c(C)cc4O)n[nH]c3C(=O)N2CCO)cc(Br)c1O (stereo not drawn) [CBK269009]	82.4105

Structure (SMILES)	% of control remaining
CCCC/C=C/c1cncc(N2CCCC2CO)n1 (stereo not drawn) [CBK065402]	130.48
COCc1ccsc1C(=O)Nc1ncn(CC(=O)N2CCCCCC2)n1 [CBK304160]	20.3104
CCN1CCN(Cc2cnc(-c3ccccn3)nc2)CC1=O [CBK306678]	51.9439
Cc1nc(C2CCN(C(=O)c3ccn(C)n3)CC2)c2sccn12 [CBK285202]	80.1903
N#CCCCN1CCCN(c2nccc(OCC3COc4ccccc4O3)n2)CC1 (stereo not drawn) [CBK083977]	93.6287
COCC1(C(=O)N2CC(=O)N(c3ccc(Cl)cc3)CC2C)CCC1 (stereo not drawn) [CBK306674]	60.4591
CCn1nc(NC(=O)CCn2c(C(F)F)cc3cccnc32)cc1C [CBK285072]	103.517
Cc1ccc(Cc2cnc(NC(=O)NCCN3CCOCC3)s2)cc1F [CBK305449]	63.3662
O=C(Nc1cccc(O)c1)c1ccc(NC(=O)C2CCCO2)cc1 (stereo not drawn) [CBK269746]	97.3872
c1ncc(N2CCCC2)nc1OCCN1CCOCC1 [CBK113430]	94.3348
Cc1ccc2nc(-c3ccc(N4C(=O)CC(N5CCN(CCOCCO)CC5)C4=O)cc3)sc2c1 (stereo not drawn) [CBK265362]	83.7597
Cc1[nH]nc(Nc2ccc(I)cc2)c1[N+](=O)[O-] [CBK262748]	94.5092
O=C(NC1CCCCC1)N[C@H]1CO[C@H]2[C@@H]1OC[C@@H]2n1cc(-c2ccccc2)nn1 [CBK289505]	114.851
O=C(Nc1nnn[nH]1)C1(c2ccc([N+](=O)[O-])cc2)CCCC1 [CBK267237]	123.993
O=C(O)CNC(=O)/C(=C\c1ccc(F)cc1)NC(=O)c1ccco1 [CBK263718]	101.111
OCCC1CCCCN1c1cncc(-c2cccs2)n1 (stereo not drawn) [CBK065758]	89.1511
NC(=O)c1c(NC(=O)CCN2C(=O)c3cccc([N+](=O)[O-])c3C2=O)sc2c1CCCC2 [CBK263132]	91.0278
CN(CC(=O)N1CCCCCC1)S(=O)(=O)c1cc(Cl)ccc1Cl [CBK091841]	89.2987
CC(=O)Nc1cccc(-c2cnc(NCc3ccc4c(c3)OCO4)c(C(=O)NCC3COc4ccccc4O3)c2)c1 (stereo not drawn) [CBK138473T]	91.978
COC(=O)CCc1ccc(S(=O)(=O)N2CCN(Cc3cccc4cccnc34)CC2)cc1 [CBK062969]	89.5149
OCC[C@H]1CN2CCCC2CN1Cc1cccn1-c1cccc(F)c1 (stereo partly drawn) [CBK282985]	105.431
O=C(C1=C(O)C(=O)N(Cc2cccnc2)C1c1ccc(Cl)cc1Cl)c1ccccc1 (stereo not drawn) [CBK263367]	101.602
COCCNC(=O)c1ccc(-c2cc(C)cs2)nc1NCC1CC1 [CBK106259]	85.3844
Cc1ccc(CC(=O)N2CCC(c3ncc(C(=O)Nc4ccc(F)cc4)c(C)n3)CC2)cc1 [CBK285884]	89.4282
COc1ccc2cc3c(nc2c1)OC(=O)N(CC1CC1)C3 [CBK282432]	3.966
O=C(C1CCCCC1)N1CCC(c2nnc(-c3ccsc3)o2)CC1 [CBK283380]	119.047

— article PMC12040169 (PLOS Biology, 2025)
